# Reference: the supplement of paper PMC8728848
# The other results are listed elsewhere or left out.
# B1: a L Fucosidase (Streptosporangium roseum), D2B1P1_STRRD (protein)
# chain: MRRKLLLVPAVGLLVIGSIFATQPVASADTPPVYEPTVESLNSHPVPQWFNDDKFGIFIHWGAYSVPAWGPRGSYAEWYGNYMNAGGSATNAHHKATYGQDFNYDAFLQQWKAEKFDPADWVKLFKDAGAKYFVLTSKHHEGMALWDSKSSGRDSVDLGPGRDLAKELFDAARKDEAKLKAGFYYSLYEWYNPAYTGRPATNPYTGAEIPYTGAPGGGDYVKDYMLPQMRELIDGYDPDIIWCDGQWEKPASYWNTAGVIADYYNKALNSGKEVAVANRCKIQSGNLDSPELDFQTPEYTVKPDIDPVKWESSRGIAHSYGYNQNEPEEDHLTSDQLVDSLVDIVSKNGNLLLDIGPKADGTIPEIQRQRLLDIGAWLKANGEAIYGTTYWNRAEEKGGPDDVRYTAKDATLYATALKWPGEQLTLGADLPVDHSTRITMLGSGARLSWSRDEQGRVVVNTPQEAGKHAYVFKIETPGVRSLLRTSSSLAKEIAPGRTISGELTVTNPGKRHTPATKLSLTVPQGWTATLGAPRVRPLGPGESVKVPISVSAPEGVAPAPYTLGLYQRTGRMGTTTALPLTVNRPNLSLGKPATQKSTGYDAPASRAVDGNTGGDWSAGSTTHTAEPEKQAWWQVDLGASARLDSVDVWNRLDCCADRLKDFWVMASDQPFTTDDLDQARTAPGVTAVHVGEQAGSPSKVKLPEGTRGRYVRIQLASPSNPLSLAEVQVRGSMARPNLSLGKPATQKSTGYDAPASRAVDGNTGGDWSAGSTTHTAEPEKQAWWQVDLGASARLDSVDVWNRLDCCADRLKDFWVMASDQPFTTDDLDQARTAPGVTAVHVGEQAGSPSKVKLPEGTRGRYVRIQLASPSNPLSLAEVQVRLEHHHHHHS
# Columns and labels:
# Test in all cases: glycan array binding signal (z-score within array); higher = stronger binding
# Details in all cases: glycan notation: IUPAC condensed, linker removed
# [1] = biological target: Fuc(a1-2)Gal(b1-4)GlcNAc(b1-3)Gal(b1-4)GlcNAc(b1-2)Man(a1-3)[Fuc(a1-2)Gal(b1-4)GlcNAc(b1-3)Gal(b1-4)GlcNAc(b1-2)Man(a1-6)]Man(b1-4)GlcNAc(b1-4)GlcNAc
# Method in brief: (§1)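 The binding signal is a Z-score computed within each array and averaged over linkers. Arrays of the same protein sequence at different concentrations or buffers were also averaged together. Data originate from 3228 arrays in the Consortium for Functional Glycomics database, kept only where the protein sequence was available.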
# [2] = biological target: Fuc(a1-2)Gal(b1-4)GlcNAc(b1-3)Gal(b1-4)GlcNAc(b1-3)Gal(b1-4)GlcNAc
# Method in brief: as §1
# [3] = biological target: Fuc(a1-2)Gal(b1-4)GlcNAc(b1-3)GalNAc
# Method in brief: as §1
# [4] = biological target: Fuc(a1-2)Gal(b1-4)GlcNAc(b1-3)[Fuc(a1-2)Gal(b1-4)GlcNAc(b1-6)]GalNAc
# Method in brief: as §1
# [5] = biological target: Fuc(a1-2)Gal(b1-4)GlcNAc(b1-3)[Fuc(a1-3)[Gal(b1-4)]GlcNAc(b1-6)]Gal(b1-4)Glc
# Method in brief: as §1
# [6] = biological target: Fuc(a1-2)Gal(b1-4)GlcNAc(b1-6)GalNAc
# Method in brief: as §1
# [7] = biological target: Fuc(a1-2)Gal(b1-4)GlcNAc6S
# Method in brief: as §1
# [8] = biological target: Fuc(a1-2)Gal(b1-4)[Fuc(a1-3)]GlcNAc
# Method in brief: as §1
# [9] = biological target: Fuc(a1-2)Gal(b1-4)[Fuc(a1-3)]GlcNAc(b1-2)Man(a1-3)[Fuc(a1-2)Gal(b1-4)[Fuc(a1-3)]GlcNAc(b1-2)Man(a1-6)]Man(b1-4)GlcNAc(b1-4)[Fuc(a1-6)]GlcNAc
# Method in brief: as §1
# [10] = biological target: Fuc(a1-2)Gal(b1-4)[Fuc(a1-3)]GlcNAc(b1-2)[Fuc(a1-2)Gal(b1-4)[Fuc(a1-3)]GlcNAc(b1-4)]Man(a1-3)[Fuc(a1-2)Gal(b1-4)[Fuc(a1-3)]GlcNAc(b1-2)Man(a1-6)]Man(b1-4)GlcNAc(b1-4)GlcNAc
# Method in brief: as §1
# [11] = biological target: Fuc(a1-2)Gal(b1-4)[Fuc(a1-3)]GlcNAc(b1-3)Gal(b1-4)[Fuc(a1-3)]GlcNAc
# Method in brief: as §1
# [12] = biological target: Fuc(a1-2)Gal(b1-4)[Fuc(a1-3)]GlcNAc(b1-3)Gal(b1-4)[Fuc(a1-3)]GlcNAc(b1-3)Gal(b1-4)[Fuc(a1-3)]GlcNAc
# Method in brief: as §1
# [13] = biological target: Fuc(a1-2)Gal(b1-4)[Fuc(a1-3)]GlcNAc(b1-3)GalNAc
# Method in brief: as §1
# [14] = biological target: Fuc(a1-2)Gal(b1-4)[Fuc(a1-3)]GlcNAc(b1-3)[Neu5Ac(a2-6)Gal(b1-4)GlcNAc(b1-6)]Gal(b1-4)Glc
# Method in brief: as §1
# [15] = biological target: Fuc(a1-2)Gal3S(b1-4)GlcNAc
# Method in brief: as §1
# [16] = biological target: Fuc(a1-2)Gal6S(b1-3)GlcNAc
# Method in brief: as §1
# [17] = biological target: Fuc(a1-2)Gal6S(b1-3)GlcNAc6S
# Method in brief: as §1
# Fuc(a1-2)Gal6S(b1-4)Glc = biological target: Fuc(a1-2)Gal6S(b1-4)Glc
# Method in brief: as §1
# [18] = biological target: Fuc(a1-2)Gal6S(b1-4)Glc6S
# Method in brief: as §1
# Fuc(a1-2)[Gal(a1-3)]Gal = biological target: Fuc(a1-2)[Gal(a1-3)]Gal
# Method in brief: as §1
# [19] = biological target: Fuc(a1-2)[Gal(a1-3)]Gal(b1-3)GalNAc
# Method in brief: as §1
# [20] = biological target: Fuc(a1-2)[Gal(a1-3)]Gal(b1-3)GalNAc(b1-3)Gal(a1-4)Gal(b1-4)Glc
# Method in brief: as §1
# [21] = biological target: Fuc(a1-2)[Gal(a1-3)]Gal(b1-3)GlcNAc
# Method in brief: as §1
# [22] = biological target: Fuc(a1-2)[Gal(a1-3)]Gal(b1-3)GlcNAc(b1-2)Man(a1-3)[Fuc(a1-2)[Gal(a1-3)]Gal(b1-3)GlcNAc(b1-2)Man(a1-6)]Man(b1-4)GlcNAc(b1-4)GlcNAc
# Method in brief: as §1
# [23] = biological target: Fuc(a1-2)[Gal(a1-3)]Gal(b1-3)GlcNAc(b1-2)Man(a1-3)[Fuc(a1-2)[Gal(a1-3)]Gal(b1-3)GlcNAc(b1-2)Man(a1-6)]Man(b1-4)GlcNAc(b1-4)[Fuc(a1-6)]GlcNAc
# Method in brief: as §1
# [24] = biological target: Fuc(a1-2)[Gal(a1-3)]Gal(b1-3)GlcNAc(b1-3)GalNAc
# Method in brief: as §1
# [25] = biological target: Fuc(a1-2)[Gal(a1-3)]Gal(b1-3)GlcNAc(b1-6)GalNAc
# Method in brief: as §1
# [26] = biological target: Fuc(a1-2)[Gal(a1-3)]Gal(b1-4)Glc
# Method in brief: as §1
# [27] = biological target: Fuc(a1-2)[Gal(a1-3)]Gal(b1-4)GlcNAc
# Method in brief: as §1
# [28] = biological target: Fuc(a1-2)[Gal(a1-3)]Gal(b1-4)GlcNAc(b1-2)Man
# Method in brief: as §1
binder,measurement,setting,value
B1,glycan array binding signal (z-score),[1],9.35
same,glycan array binding signal (z-score),[2],4.15
same,glycan array binding signal (z-score),[3],0.031
same,glycan array binding signal (z-score),[4],1.24
same,glycan array binding signal (z-score),[5],-0.506
same,glycan array binding signal (z-score),[6],4.78
same,glycan array binding signal (z-score),[7],-0.38
same,glycan array binding signal (z-score),[8],3.89
same,glycan array binding signal (z-score),[9],3.58
same,glycan array binding signal (z-score),[10],0.785
same,glycan array binding signal (z-score),[11],9.04
same,glycan array binding signal (z-score),[12],5.04
same,glycan array binding signal (z-score),[13],-0.291
same,glycan array binding signal (z-score),[14],-0.409
same,glycan array binding signal (z-score),[15],-0.258
same,glycan array binding signal (z-score),[16],-0.338
same,glycan array binding signal (z-score),[17],2.52
same,glycan array binding signal (z-score),Fuc(a1-2)Gal6S(b1-4)Glc,1.78
same,glycan array binding signal (z-score),[18],0.33
same,glycan array binding signal (z-score),Fuc(a1-2)[Gal(a1-3)]Gal,3.18
same,glycan array binding signal (z-score),[19],-0.442
same,glycan array binding signal (z-score),[20],-0.339
same,glycan array binding signal (z-score),[21],-0.14
same,glycan array binding signal (z-score),[22],-0.246
same,glycan array binding signal (z-score),[23],0.743
same,glycan array binding signal (z-score),[24],0.499
same,glycan array binding signal (z-score),[25],0.683
same,glycan array binding signal (z-score),[26],1.78
same,glycan array binding signal (z-score),[27],-0.134
same,glycan array binding signal (z-score),[28],0.117
